In general, inhibition refers to the drop in the measured response relative to a control, in per cent.

The structures appear in SMILES notation. The campaign covered roughly 2,700 compounds. About 160 (5.9%) showed an effect of 50% or more. Some of the results follow.

These results are taken from ChEMBL document CHEMBL5606458, “ASAP - ZIKV NS2B-NS3 protease fluorescence single point” (2024).

For the experiment, the target named is Nonstructural protein 3 (Zika virus) (UniProt A0A024AXB9).
Where [1] appears, read: PRVABC59, Concentration 50.0 uM, Number of replicates 1.0.
Setting [2] is: PRVABC59, Concentration 15.0 uM, Number of replicates 1.0.
The mark [3] stands for this setting: PRVABC59, Concentration 10.0 uM, Number of replicates 1.0.

UniProt A0A024AXB9, sequence (A0A024AXB9 as listed by the source): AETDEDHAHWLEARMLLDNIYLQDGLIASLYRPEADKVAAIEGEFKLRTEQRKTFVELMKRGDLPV

With `COCCCN1CCN(C(=O)C2CCN(c3ccc(C=O)cc3)CC2)CC1`, the inhibition under setting [1] was 19.2%.
Take `COc1cc(Cc2cccc3[nH]nnc23)nc(N2CCNCC2)n1`: the inhibition runs as follows: (PRVABC59, Concentration 49.5 uM, Number of replicates 2.0, Standard deviation 1.138158785297289 %) 6.02%; (PRVABC59, Concentration 99.01 uM, Number of replicates 2.0, Standard deviation 1.21249807105038 %) 9.76%; (PRVABC59, Concentration 198.0 uM, Number of replicates 2.0, Standard deviation 1.4508961562682487 %) 15.7%.
Regarding `CCN(CC)CCC[C@H](C)NC(=O)c1cc(Cl)ccc1NS(=O)(=O)c1ccc(Oc2ccccc2Cl)cc1`, the inhibition under setting [2] worked out at 26.9%.
With `Cc1nc(Cl)c(NC(=O)C2CCN(c3ccc(C=O)cc3)CC2)c(Cl)n1`, the inhibition under setting [1] is 20.7%.
Take `N#Cc1ccc(C[C@H](NC(=O)c2ccccc2)C(=O)NCCCCNC(=N)N)cc1`: the inhibition is 1.32% (PRVABC59, Concentration 49.5 uM, Number of replicates 2.0, Standard deviation 0.37161761415873995 %); 7.51% (PRVABC59, Concentration 99.01 uM, Number of replicates 2.0, Standard deviation 0.413350327736166 %); 18.2% (PRVABC59, Concentration 198.0 uM, Number of replicates 2.0, Standard deviation 1.0731208032483701 %).
Turning to `O=Cc1ccc(N2CCC(C(=O)Nc3cccc(C(F)(F)F)n3)CC2)cc1`, the inhibition under setting [1] amounted to 23.3%.
With `O=Cc1ccc(N2CCC(C(=O)NCCc3csc(-c4ccncc4)n3)CC2)cc1`, the inhibition under setting [1] came to 27.6%.
Consider `O=Cc1ccc(N2CCC(C(=O)NCc3ccc(Br)s3)CC2)cc1`, for which the inhibition under setting [3] was determined as 22.4%.
For `N#Cc1cnn(-c2ccccn2)c1NC(=O)c1cc(Cl)ccc1NS(=O)(=O)c1ccc(Oc2ccccc2Cl)cc1`, the inhibition under setting [2] is 20.8%.
With `O=Cc1ccc(N2CCC(C(=O)N3CCN(c4ccccc4[N+](=O)[O-])CC3)CC2)cc1`, the inhibition under setting [1] worked out at 30.4%.
Take `Cc1cc(CO)c2cccc(CC(=O)Nc3cc(C)on3)c2n1`: the inhibition is, setting by setting: (PRVABC59, Concentration 49.95 uM, Number of replicates 2.0, Standard deviation 1.089187856250299 %) 91.5%; (PRVABC59, Concentration 99.9 uM, Number of replicates 2.0, Standard deviation 0.03053454880917251 %) 93.2%.
Regarding `O=C(Nc1ccnc(Br)c1)c1cc(Cl)ccc1NS(=O)(=O)c1ccc(Oc2ccccc2Cl)cc1`, the inhibition under setting [2] was 24.9%.
Take `O=C(NCc1ccc(Br)s1)c1cc(Cl)ccc1NS(=O)(=O)c1ccc(Oc2ccccc2Cl)cc1`: the inhibition under setting [2] stood at 29.3%.
Consider `CCOc1ccccc1CNC(=O)C1CCN(c2ccc(C=O)cc2)CC1`, for which, under setting [3], the inhibition was 22.9%.
As to `NS(=O)(=O)c1cscc1CNCc1nnc2ccccn12`, the inhibition by setting is: (PRVABC59, Concentration 49.5 uM, Number of replicates 2.0, Standard deviation 1.0558397524219334 %) -3.12%; (PRVABC59, Concentration 99.01 uM, Number of replicates 2.0, Standard deviation 0.8489884990207718 %) -2.58%; (PRVABC59, Concentration 198.0 uM, Number of replicates 2.0, Standard deviation 2.897713171950219 %) -0.956%.
`COCCCN1CCN(C(=O)c2cc(Cl)ccc2NS(=O)(=O)c2ccc(Oc3ccccc3Cl)cc2)CC1`: the inhibition under setting [2] came out at 2.25%.
For the molecule `Cn1nc(-c2ccccc2)cc1CN1CCC(c2c[nH]c3cccnc23)CC1`, the inhibition is -0.574% (PRVABC59, Concentration 49.5 uM, Number of replicates 2.0, Standard deviation 1.9137275585057805 %); 4.18% (PRVABC59, Concentration 99.01 uM, Number of replicates 2.0, Standard deviation 1.2887842040298862 %); 4.99% (PRVABC59, Concentration 198.0 uM, Number of replicates 2.0, Standard deviation 1.218769522108801 %).
On to `O=C(N[C@H]1CCCN(c2cnccn2)C1)c1cc(Cl)ccc1NS(=O)(=O)c1ccc(Oc2ccccc2Cl)cc1`, for which, under setting [2], the inhibition came out at 11.6%.
On to `C[C@H]1CCCCN1CCCNC(=O)C1CCN(c2ccc(C=O)cc2)CC1`, for which the inhibition under setting [1] stood at 24.6%.
On to `COc1cc2nc(Cl)nc(NC(=O)c3cc(Cl)ccc3NS(=O)(=O)c3ccc(Oc4ccccc4Cl)cc3)c2cc1OC`, for which the inhibition under setting [2] is 21.2%.
With `Cc1cn2nnc(C(=O)N3CCC[C@H](c4nc(=O)[nH][nH]4)C3)c2c(=O)[nH]1`, the inhibition by setting is: (PRVABC59, Concentration 49.5 uM, Number of replicates 2.0, Standard deviation 5.922516878130855 %) -5.04%; (PRVABC59, Concentration 99.01 uM, Number of replicates 2.0, Standard deviation 6.562318743166875 %) -4.61%; (PRVABC59, Concentration 198.0 uM, Number of replicates 2.0, Standard deviation 5.541728657645175 %) -4.73%.
`CNC(=O)C[C@H]1CCCN1S(=O)(=O)c1ccc(Oc2ccccc2Cl)cc1`: the inhibition by setting is: (PRVABC59, Concentration 49.5 uM, Number of replicates 2.0, Standard deviation 2.9765876271904763 %) -0.51%; (PRVABC59, Concentration 99.01 uM, Number of replicates 2.0, Standard deviation 1.3586951625567862 %) 1.57%; (PRVABC59, Concentration 198.0 uM, Number of replicates 2.0, Standard deviation 0.698160185359443 %) 4.75%.
For `O=Cc1ccc(N2CCC(C(=O)N3Cc4ccccc4C[C@@H]3CO)CC2)cc1`, the inhibition under setting [1] was 23.9%.
In the case of `COc1cccc([C@H](C)NC(=O)C2CCN(c3ccc(C=O)cc3)CC2)c1`, the inhibition under setting [3] was found to be 23%.
In the case of `O=Cc1ccc(N2CCC(C(=O)NCCc3ccc(OC(F)(F)F)cc3)CC2)cc1`, the inhibition under setting [1] turned out to be 23.3%.
Turning to `Cn1cc(NC(=O)c2ccccc2C(F)(F)F)c(-c2cccc(CO)c2)n1`, the inhibition is -2.4% (PRVABC59, Concentration 49.5 uM, Number of replicates 2.0, Standard deviation 2.1425827542838123 %); -2.61% (PRVABC59, Concentration 99.01 uM, Number of replicates 2.0, Standard deviation 3.2486075389443645 %); -1.36% (PRVABC59, Concentration 198.0 uM, Number of replicates 2.0, Standard deviation 3.617736613506203 %).
